This is an account of results in article PMC5892938.

Some of the results follow. At the low end of the ranking, values are background and their order means little.

The test deals with GST-SBP-SLBP (stem-loop binding protein) (UniProt Q14493). The test can be described thus: targeted RNA Bind-n-Seq.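 Further: DESeq read counts versus GST-SBP nonspecific binding control pulldown.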 The note with it: RBNS binding buffer: 25 mM Tris pH 7.5, 150 mM KCl, 3 mM MgCl2, 0.1% Tween, 0.5 mg/mL BSA, 1 mM DTT; 27 nM protein, 750 pM RNA pool; temperature not stated; high values mean tight binding.
Turning to “GGUCACGUCUCAAUCAACUCUAUAGAGGGGGGGAAAACCCCUUUGCCCUCAAAUUCAACAGCUCGCAGUCAAG”, the binding signal (log2 fold change) was found to be 0.103.
Take “GGUCACGUCUCAAUCAACUCUAUCUCAGGAGUUUCCUCCUGUUUACUCAACAGCUCGCAGUCAAG”: the binding signal (log2 fold change) was -0.000934.
“GGUCACGUCUCAAUCAACUCUAUCGCAGGAGUUUACUCCUGGUUUCUCAACAGCUCGCAGUCAAG”: the binding signal (log2 fold change) came out at 0.00963.
“GGUCACGUCUCAAUCAACUCAAUCUCAGGAGUUUGCUCCUGUUUUUUCAACAGCUCGCAGUCAAG”: the binding signal (log2 fold change) is -0.203.
As to “GGUCACGUCUCAAUCAACUCUUCCCCCAGGGAAACCCCUGGUUUACUCAACAGCUCGCAGUCAAG”, the binding signal (log2 fold change) came out at 0.0598.
To “GGUCACGUCUCAAUCAACUCCUUAGAGGGGGGGAAAACCCCUUUACCCUCAACCUCAACAGCUCGCAGUCAAG” belongs 0.395.
For the sequence “GGUCACGUCUCAAUCAACUCAGUCCCCAGGGAAAUCCCUGGUAAAUUCAACAGCUCGCAGUCAAG”, the binding signal (log2 fold change) is -0.213.
Take “GGUCACGUCUCAAUCAACUCUAUUCCCAGGGAAAACCCUGGUAAAUUCAACAGCUCGCAGUCAAG”: the binding signal (log2 fold change) was 0.145.
Regarding “GGUCACGUCUCAAUCAACUCUUUAGAGGGGGGGAAAACCCCUUUGCCCUCAUACUCAACAGCUCGCAGUCAAG”, the binding signal (log2 fold change) is 0.164.
With “GGUCACGUCUCAAUCAACUCACACGAGGGGGGGAAAACCCCUUUACCCUCUUACUCAACAGCUCGCAGUCAAG”, the binding signal (log2 fold change) was determined as 0.0434.
With “GGUCACGUCUCAAUCAACUCAUUUCCAGGAGUUUCCUCCUGUUUAUUCAACAGCUCGCAGUCAAG” the figure was -0.274; with “GGUCACGUCUCAAUCAACUCAUCUCCAGGAGUUUACUCCUGCUAAUUCAACAGCUCGCAGUCAAG”, 0.12.
As to “GGUCACGUCUCAAUCAACUCUUCUCCAGGAGUUUUCUCCUGCAUACUCAACAGCUCGCAGUCAAG”, the binding signal (log2 fold change) is -0.0841.
On to “GGUCACGUCUCAAUCAACUCCUCAGAGGGGGGGAAAACCCCUUUGCCCUCAAUUUCAACAGCUCGCAGUCAAG”, for which the binding signal (log2 fold change) is -0.0837.
Take “GGUCACGUCUCAAUCAACUCAAUAGAGGGGGGGAAAACCCCUUUGCCCUCGUCAUCAACAGCUCGCAGUCAAG”: the binding signal (log2 fold change) is -0.555.
To “GGUCACGUCUCAAUCAACUCUUCGCCAGGAGUUUUCUCCUGUAAAUUCAACAGCUCGCAGUCAAG” belongs 0.133.
As to “GGUCACGUCUCAAUCAACUCUUUCGAGGGGGGGAAAACCCCUUUACCCUCACCGUCAACAGCUCGCAGUCAAG”, the binding signal (log2 fold change) is -0.156.
To “GGUCACGUCUCAAUCAACUCUACUCCAGGAGUUUCCUCCUGCAUUCUCAACAGCUCGCAGUCAAG” belongs -0.0861; to “GGUCACGUCUCAAUCAACUCAUCUUCAGGAGUUUACUCCUGCUUAUUCAACAGCUCGCAGUCAAG”, -0.088.
“GGUCACGUCUCAAUCAACUCAUCUCCAGGAGUUUUCUCCUGUUAACUCAACAGCUCGCAGUCAAG”: the binding signal (log2 fold change) is 0.07.
Regarding “GGUCACGUCUCAAUCAACUCAACGCCAGGAGUUUCCUCCUGUUAAUUCAACAGCUCGCAGUCAAG”, the binding signal (log2 fold change) stood at 0.0767.
For “GGUCACGUCUCAAUCAACUCUACUUCCAGGGAAAUCCCUGGUAAUUUCAACAGCUCGCAGUCAAG”, the binding signal (log2 fold change) was 0.188.
“GGUCACGUCUCAAUCAACUCCCCAGAGGGGGGGAAAACCCCUUUGCCCUCCAUUUCAACAGCUCGCAGUCAAG”: the binding signal (log2 fold change) was -0.0539.
Take “GGUCACGUCUCAAUCAACUCAACUCCCAGGGAAAUCCCUGGCUUACUCAACAGCUCGCAGUCAAG”: the binding signal (log2 fold change) is 0.0219.
For the sequence “GGUCACGUCUCAAUCAACUCUUUCUCAGGAGUUUUCUCCUGUAUACUCAACAGCUCGCAGUCAAG”, the binding signal (log2 fold change) was -0.302.
For the sequence “GGUCACGUCUCAAUCAACUCAUCCCCAGGAGUUUUCUCCUGUUUAUUCAACAGCUCGCAGUCAAG”, the binding signal (log2 fold change) was found to be 0.217.
“GGUCACGUCUCAAUCAACUCUUUCCCAGGAGUUUCCUCCUGUUUUUUCAACAGCUCGCAGUCAAG”: the binding signal (log2 fold change) is -0.195.
For the sequence “GGUCACGUCUCAAUCAACUCUUCCCCCAGGGAAAGCCCUGGCAAAUUCAACAGCUCGCAGUCAAG”, the binding signal (log2 fold change) is 0.0219.
“GGUCACGUCUCAAUCAACUCUUCUCCCAGGGAAACCCCUGGUAAACUCAACAGCUCGCAGUCAAG”: the binding signal (log2 fold change) was 0.142.
To “GGUCACGUCUCAAUCAACUCUUUCUCAGGAGUUUUCUCCUGCUAUUUCAACAGCUCGCAGUCAAG” belongs -0.0929.
With “GGUCACGUCUCAAUCAACUCAUCGCCAGGAGUUUCCUCCUGCAUUUUCAACAGCUCGCAGUCAAG” the figure was -0.0526; with “GGUCACGUCUCAAUCAACUCAUCGUCCAGGGAAAACCCUGGUAAAUUCAACAGCUCGCAGUCAAG”, -0.0601; with “GGUCACGUCUCAAUCAACUCAGUCCCAGGAGUUUACUCCUGCUUAUUCAACAGCUCGCAGUCAAG”, 0.0925.
For “GGUCACGUCUCAAUCAACUCAACGGAGGGGGGGAAAACCCCUUUACCCUCAAAUUCAACAGCUCGCAGUCAAG”, the binding signal (log2 fold change) is -0.202.
Take “GGUCACGUCUCAAUCAACUCAAUCCCCAGGGAAAGCCCUGGUAUUUUCAACAGCUCGCAGUCAAG”: the binding signal (log2 fold change) came to 0.0192.
Consider “GGUCACGUCUCAAUCAACUCAAUCCCAGGAGUUUACUCCUGCAUACUCAACAGCUCGCAGUCAAG”, for which the binding signal (log2 fold change) was 0.0286.
As to “GGUCACGUCUCAAUCAACUCAACGGCAGGAGUUUACUCCUGGAUAUUCAACAGCUCGCAGUCAAG”, the binding signal (log2 fold change) is -0.0267.
Take “GGUCACGUCUCAAUCAACUCUAUCGCAGGAGUUUUCUCCUGGUAAUUCAACAGCUCGCAGUCAAG”: the binding signal (log2 fold change) is -0.00957.
On to “GGUCACGUCUCAAUCAACUCAGUCCCAGGAGUUUUCUCCUGUUUUUUCAACAGCUCGCAGUCAAG”, for which the binding signal (log2 fold change) came to 0.128.
With “GGUCACGUCUCAAUCAACUCAAUCCCCAGGGAAAUCCCUGGUAUACUCAACAGCUCGCAGUCAAG” the figure was 0.294.
As to “GGUCACGUCUCAAUCAACUCUCACGAGGGGGGGAAAACCCCUUUGCCCUCACAAUCAACAGCUCGCAGUCAAG”, the binding signal (log2 fold change) was 0.296.
To “GGUCACGUCUCAAUCAACUCUUCUUCCAGGGAAAGCCCUGGUAAUUUCAACAGCUCGCAGUCAAG” belongs -0.0148; to “GGUCACGUCUCAAUCAACUCAAUCCCCAGGGAAAACCCUGGUUUAUUCAACAGCUCGCAGUCAAG”, -0.398.
Turning to “GGUCACGUCUCAAUCAACUCUUUCCCAGGAGUUUACUCCUGUUUUUUCAACAGCUCGCAGUCAAG”, the binding signal (log2 fold change) is -0.118.
Regarding “GGUCACGUCUCAAUCAACUCAGUUCCAGGAGUUUCCUCCUGCUAAUUCAACAGCUCGCAGUCAAG”, the binding signal (log2 fold change) amounted to 0.0676.
On to “GGUCACGUCUCAAUCAACUCAAUCUCCAGGGAAAACCCUGGCUUUUUCAACAGCUCGCAGUCAAG”, for which the binding signal (log2 fold change) is -0.00676.
As for “GGUCACGUCUCAAUCAACUCCAUAGAGGGGGGGAAAACCCCUUUACCCUCAAUUUCAACAGCUCGCAGUCAAG”, the binding signal (log2 fold change) was -0.441.
Consider “GGUCACGUCUCAAUCAACUCUUUCCCAGGAGUUUCCUCCUGUUAAUUCAACAGCUCGCAGUCAAG”, for which the binding signal (log2 fold change) amounted to 0.0321.
Regarding “GGUCACGUCUCAAUCAACUCAUCUCCCAGGGAAAACCCUGGCUAUCUCAACAGCUCGCAGUCAAG”, the binding signal (log2 fold change) was determined as 0.3.
“GGUCACGUCUCAAUCAACUCAUCAGAGGGGGGGAAAACCCCUUUGCCCUCAAUCUCAACAGCUCGCAGUCAAG”: the binding signal (log2 fold change) came to 0.0463.
In the case of “GGUCACGUCUCAAUCAACUCCUUCGAGGGGGGGAAAACCCCUUUACCCUCUUUUUCAACAGCUCGCAGUCAAG”, the binding signal (log2 fold change) was -0.364.
In the case of “GGUCACGUCUCAAUCAACUCAUUCUCCAGGGAAACCCCUGGCUAUUUCAACAGCUCGCAGUCAAG”, the binding signal (log2 fold change) amounted to 0.0585.
Turning to “GGUCACGUCUCAAUCAACUCAAUAGAGGGGGGGAAAACCCCUUUACCCUCACCAUCAACAGCUCGCAGUCAAG”, the binding signal (log2 fold change) came out at 0.306.
Take “GGUCACGUCUCAAUCAACUCAUCCUCAGGAGUUUCCUCCUGUAAACUCAACAGCUCGCAGUCAAG”: the binding signal (log2 fold change) was found to be 0.144.
On to “GGUCACGUCUCAAUCAACUCAUGUCCAGGAGUUUUCUCCUGUUUAUUCAACAGCUCGCAGUCAAG”, for which the binding signal (log2 fold change) is -0.0729.
As to “GGUCACGUCUCAAUCAACUCAUCUCCAGGAGUUUCCUCCUGCUUAUUCAACAGCUCGCAGUCAAG”, the binding signal (log2 fold change) is -0.0639.
On to “GGUCACGUCUCAAUCAACUCAAUUUCAGGAGUUUUCUCCUGCUAAUUCAACAGCUCGCAGUCAAG”, for which the binding signal (log2 fold change) was -0.027.
For the sequence “GGUCACGUCUCAAUCAACUCAACUUCAGGAGUUUUCUCCUGUAUUCUCAACAGCUCGCAGUCAAG”, the binding signal (log2 fold change) was 0.159.
As for “GGUCACGUCUCAAUCAACUCAUACGAGGGGGGGAAAACCCCUUUACCCUCAGAAUCAACAGCUCGCAGUCAAG”, the binding signal (log2 fold change) is -0.201.
As to “GGUCACGUCUCAAUCAACUCAUUCUCAGGAGUUUACUCCUGUAUUUUCAACAGCUCGCAGUCAAG”, the binding signal (log2 fold change) is 0.0241.
Turning to “GGUCACGUCUCAAUCAACUCUACUUCCAGGGAAAACCCUGGUAUUCUCAACAGCUCGCAGUCAAG”, the binding signal (log2 fold change) worked out at 0.115.
For the sequence “GGUCACGUCUCAAUCAACUCUUUUUCCAGGGAAAACCCUGGUAUUCUCAACAGCUCGCAGUCAAG”, the binding signal (log2 fold change) is -0.0815.
Turning to “GGUCACGUCUCAAUCAACUCAACUUCCAGGGAAAGCCCUGGCUAUCUCAACAGCUCGCAGUCAAG”, the binding signal (log2 fold change) is -0.31.
With “GGUCACGUCUCAAUCAACUCAAUCCCCAGGGAAAUCCCUGGCAUUUUCAACAGCUCGCAGUCAAG” the figure was -0.143.
For “GGUCACGUCUCAAUCAACUCUCCAGAGGGGGGGAAAACCCCUUUGCCCUCAUCAUCAACAGCUCGCAGUCAAG”, the binding signal (log2 fold change) was -0.827.
With “GGUCACGUCUCAAUCAACUCAUCGUCAGGAGUUUACUCCUGCAAUUUCAACAGCUCGCAGUCAAG” the figure was -0.0153; with “GGUCACGUCUCAAUCAACUCUCCCGAGGGGGGGAAAACCCCUUUGCCCUCACAAUCAACAGCUCGCAGUCAAG”, -0.107.
For the sequence “GGUCACGUCUCAAUCAACUCAAUUUCCAGGGAAAACCCUGGCAUUUUCAACAGCUCGCAGUCAAG”, the binding signal (log2 fold change) was -0.117.
In the case of “GGUCACGUCUCAAUCAACUCAAUCCCAGGAGUUUACUCCUGCAUUUUCAACAGCUCGCAGUCAAG”, the binding signal (log2 fold change) was found to be 0.0932.
As to “GGUCACGUCUCAAUCAACUCAAUUUCAGGAGUUUCCUCCUGUUUUCUCAACAGCUCGCAGUCAAG”, the binding signal (log2 fold change) is -0.0145.
With “GGUCACGUCUCAAUCAACUCAUUCGCCAGGGAAAACCCUGGGUAUUUCAACAGCUCGCAGUCAAG” the figure was 0.292; with “GGUCACGUCUCAAUCAACUCAAUCCCCAGGGAAACCCCUGGCAUAUUCAACAGCUCGCAGUCAAG”, -0.395; with “GGUCACGUCUCAAUCAACUCAAAAGAGGGGGGGAAAACCCCUUUACCCUCCCAAUCAACAGCUCGCAGUCAAG”, 0.0325.
As for “GGUCACGUCUCAAUCAACUCAACUUCAGGAGUUUACUCCUGCAAAUUCAACAGCUCGCAGUCAAG”, the binding signal (log2 fold change) is -0.0639.
